Assay results published in the supplement of paper PMC11417369.
± gives the standard deviation of the averaged measurements. This is one part of the list.

test system: PfAP2-EXP AP2 domain (GST-tagged); assay: gcPBM binding intensity (ln(normalized median fluorescence intensity)); higher = stronger DNA binding
How it was run: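 An Agilent 4 × 180k array carrying primer-extended double-stranded 36-bp intergenic genomic probes and negative controls received GST-tagged P. falciparum DNA-binding domains expressed in E. coli, about 25 μg on average, for 1 h. The binding buffer contained 1× PBS, 1% milk, 0.2 mg/ml BSA, 0.5% salmon testes DNA and 0.03% Triton X-100. Binding intensity is the top Masliner-normalised natural-log median intensity across replicate spots of either probe orientation, read after Alexa488 anti-GST antibody staining and a 488 nm scan.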

Compared with “CACACCCACCAACACACACACACACCCACCCATATA [CACACA_site366]”, “TTATAAATGAATAAATGTACAAAATATATATATATA [XGTACX_site8829]” is higher in “gcPBM binding intensity (ln)” value: 8.61 ± 0.57 for the first, 10.1 ± 0.36 for the second.

First: CATAACATAAAATAGGTGCACAAAAATTGTAATTGA
Second: TTGTAATATATGTATTGTACGCATATAACAATTATT [XGTACX_site3652]
The “gcPBM binding intensity (ln)” value of the first is higher: 9.275 ± 0.035 for the first, 8.46 ± 0.22 for the second.

“TTCAGTGTATACATATGTACATATATATATATATAT [XGTACX_site1621]” and “ATTTTTATTTGTTACGCATGCATAAAAGTGCATACT [TGCATGCA_site547]” are within error of each other in “gcPBM binding intensity (ln)” value: 10 ± 0.42 for the first, 9.685 ± 0.092 for the second.

“AAAATACATAAATGTTCACACATTAAAAAGCAGAAG [CACACA_site5346]” and “TTTATAAAGAAACACACACACATGTGAACATAAAAA [CACACA_site1908]” are within error of each other in “gcPBM binding intensity (ln)” value: 8.87 ± 0.49 for the first, 8.94 ± 0.45 for the second.

“TATGTCAGATGAAAGGGTACATAATATAATATATTT [XGTACX_site8062]” and “TTTTTTTTTTAATTCGCACACTGTCTTCATACAATT [CACACA_site1379]” are within error of each other in “gcPBM binding intensity (ln)” value: 8.32 ± 0.46 for the first, 8.91 ± 0.41 for the second.

Going from “ATATATATATATTTATGTACTTAATAATTTATTCAC [XGTACX_site7301]” to “TGCAGTCTGGAGAAAAGTACATAGTATCTGGTAACC [XGTACX_site2019]”, the “gcPBM binding intensity (ln)” value falls from 9.79 ± 0.28 to 8.7 ± 0.42.

“TTTTTATTACATAATTAAAAAAAATAATAAAATAAA [XGTACX_negctrl_site249]” and “AATTTAAAATAATATTGTACTTAGATATAAATATGA [XGTACX_site4198]” are within error of each other in “gcPBM binding intensity (ln)” value: 8.22 ± 0.41 for the first, 8.2 ± 0.4 for the second.

“TAAAAAATATAAACTGCACACACAAAAAAAAAAGAG [CACACA_site8379]” and “TACATACATACATACACACACACATATATATACATA [CACACA_site853]” are within error of each other in “gcPBM binding intensity (ln)” value: 9.1 ± 0.29 for the first, 9.19 ± 0.18 for the second.

Going from “ATATCATTAAAAGGATGTACATATGTGTATACAATA [XGTACX_site871]” to “TAATATCTAAAAAATATATTTTTTATTTTTTATTAA [CACACA_negctrl_site510]”, the “gcPBM binding intensity (ln)” value falls from 9.05 ± 0.45 to 8.02 ± 0.47.

“ATGGTACACAAATATACATGCAATAATAAAAAAAAA [TGCATGCA_site879]” and “CATTAATATATATATACATGCACGTTTTAAAAAAAA [TGCATGCA_site875]” are within error of each other in “gcPBM binding intensity (ln)” value: 9.15 ± 0.36 for the first, 8.84 ± 0.28 for the second.

“TAATTATGCAGACACACACACACACGCAACTAAAAA [CACACA_site7253]” and “ATGGGAATATAATTATGTACATATAAAAATTATAAA [XGTACX_site5336]” are within error of each other in “gcPBM binding intensity (ln)” value: 8.74 ± 0.47 for the first, 8.62 ± 0.34 for the second.

“AAAAAATATTTTTACAGTACATATATATAAAATGTT [XGTACX_site3215]” and “TCATTTCACGGACACACACACACAATATATTTCCTT [CACACA_site6023]” are within error of each other in “gcPBM binding intensity (ln)” value: 8.63 ± 0.34 for the first, 8.96 ± 0.45 for the second.

For “TAACAAAGGAAAGATATACACACGTATGCATGATAA [CACACA_site2520]”, the “gcPBM binding intensity (ln)” value was 8.91 ± 0.44.
